# About 50,000 (12%) of roughly 420,000 compounds were called active. Inconclusive results, whose numbers are uncertain, are shown with a selection of clear calls. The call rests on the fitted dose curve; in most records, active means well fitted inhibition curve with a large enough effect; inconclusive means small, poorly fitted or top-dose-only effect; inactive means flat fitted curve, though single readings scatter. Potencies of inconclusive entries are left out as doubtful fits.
# Test: qHTS for Inhibitors of human tyrosyl-DNA phosphodiesterase 1 (TDP1): qHTS in cells in presence of CPT; further: nearly all actives have a fitted effect of over 55% in size
# Conditions: chicken DT40 Tdp1-/-;hTDP1 cells + 20 nM CPT, ATP luminescence, 48 h; activity change, negative = growth inhibition: at 46.2 µM (top of the series) unless noted
# In short: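 Chicken DT40 Tdp1-/- cells stably complemented with human TDP1 were seeded at 400 cells/well in medium containing 20 nM camptothecin, exposed to pin-transferred compounds, and grown at 37 °C for at least 48 hr. Viability was read as ATP luminescence.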
# On the % scale 0 is the no-effect control and ±100 the full control effect; potency means the concentration at half of the fitted maximal effect; tags describe the fitted curve by direction and shape.
Compound,Potency,"activity change, negative = growth inhibition"
COc1ccc(C(=O)/C=C/c2ccc(OC)c(Cn3nnc4ccccc43)c2)cc1,active: 18.4 µM,
O=C(COc1cc2oc(=O)cc(-c3ccccc3)c2cc1Cl)NCC1CCC(C(=O)O)CC1 (stereo not given),"inconclusive [inhibitor, full curve, poor fit]",
Cc1cc(-c2ccccc2)nc(N(C)C)c1S(C)(=O)=O,"inconclusive [inhibitor, single point]",
OC(CSc1nnnn1-c1ccccc1)Cn1c2ccccc2c2ccccc21 (stereo not given),"inconclusive [inhibitor, single point]",
COc1ccc(S(=O)(=O)N(CCc2ccccc2)CC(=O)NC(C)C)cc1,,inactive: -21.3%
CC1CCCCN1CCNC(=O)c1ccc2c(=O)n(Cc3ccc(Cl)cc3)c(=S)[nH]c2c1 (stereo not given),"inconclusive [inhibitor, single point]",
O=C(COc1ncnc2ccc(Br)cc12)NCc1ccco1,"inconclusive [inhibitor, single point]",
CN1CCN(c2ccc(CNC(=O)c3cccc4c(-c5ccc(F)c(F)c5)coc34)cc2)CC1,"inconclusive [inhibitor, single point]",
COC(=O)C1=NN(c2ccc(C)cc2)C2(S1)SC(C(C)=O)=C(C)N2c1ccccc1 (stereo not given),"inconclusive [inhibitor, single point]",
Clc1ccc(-c2nc3nc4ccccc4nc3n2Cc2ccco2)cc1,"inconclusive [inhibitor, single point]",
NC(=O)C1CCCN(Cc2ccc3ccccc3c2)C1 (stereo not given),,inactive: 2.76%
COCCN(Cc1nc(-c2ccc(-c3ccccc3)cc2)oc1C)C(C)C,active: 14.6 µM,
O=C(c1ccccc1)c1sc(Nc2ccc3c(c2)OCO3)nc1-c1ccccc1,"inconclusive [inhibitor, single point]",
COc1ccc(-c2oc3ccccc3c2C(=O)OCc2ccccc2)cc1,,inactive: -6.49%
O=C(COc1ccc2ccccc2c1)NC1CC(=O)N(c2ccc(F)cc2)C1 (stereo not given),"inconclusive [inhibitor, single point]",
CCOC(=O)c1c(-c2ccccc2)csc1NC(=O)C(C)NCc1ccco1 (stereo not given),active: 18.4 µM,
CC(C)c1ccc(C(C(=O)NC2CCCCC2)N(C(=O)c2csnn2)C2CC2)cc1 (stereo not given),"inconclusive [inhibitor, single point]",
CCOc1c(Cl)cc(/C=N/NC(N)=S)cc1OC,"inconclusive [inhibitor, single point]",
Cc1c(C(=O)OC2CCC(C)CC2)[nH]c2c1C(=O)CCC2 (stereo not given),"inconclusive [inhibitor, single point]",
CC(C)=CCC/C(C)=C/CC/C(C)=C/CO,"inconclusive [inhibitor, single point]",
Cc1cc(S(=O)(=O)Nc2ccc(C(=O)N3CCN(c4ccccc4O)CC3)cc2)ccc1F,"inconclusive [inhibitor, single point]",
COCC(=O)Nc1nc(-c2ccc(C)cc2)c(C)s1,,inactive: -29.4%
Cc1cc(C)n(-c2ccc(C(=O)N3CCN(S(=O)(=O)c4ccc(Br)cc4Cl)CC3)cc2)n1,active: 23.1 µM,

Compound,Potency,"activity change, negative = growth inhibition"
Cc1nc2sccn2c(=O)c1CCN1CCC(=C(c2ccccc2)c2ccc(F)cc2)CC1,active: 13.3 µM,
O=C(COc1ccccc1)N(Cc1nnc(-c2ccccc2Cl)o1)C1CC1,"inconclusive [inhibitor, single point]",
N#CCCn1cnc2c(=S)nc[nH]c21,,inactive: -18.9%
O=C(NCCc1ccccc1)C1CCCN(C(=O)Nc2ccc(F)cc2)C1 (stereo not given),active: 6.51 µM,
COc1ccc(CCC(C)NCc2cc(OC)cc(OC)c2)cc1 (stereo not given),"inconclusive [inhibitor, single point]",
CC1CCCN(CCSc2ccc(Cl)cc2)C1 (stereo not given),,inconclusive: -30.3% [inhibitor]
Cc1ccccc1OCc1nc2c3cnn(-c4cccc(F)c4)c3ncn2n1,"inconclusive [inhibitor, single point]",
Cc1c(CNC2CCCCC2)c(C(=O)O)c(C)n1Cc1ccccc1F,,inactive: 5.49%
C/C(=N/NC(=O)Cc1cccc2ccccc12)c1cccs1,"inconclusive [inhibitor, single point]",
CCOc1ccccc1NC(=O)C(NCC1(N2CCCCC2)CCCCC1)c1ccccc1 (stereo not given),"inconclusive [inhibitor, single point]",
O=[N+]([O-])c1ccccc1N(CC1CO1)S(=O)(=O)c1ccccc1 (stereo not given),,inactive: -26.6%
O=C(Nc1ccc(NC(=O)c2cc3ccccc3o2)cc1)c1ccco1,"inconclusive [inhibitor, single point]",
Cn1c(=O)n(C)c2cc([N+](=O)[O-])c(N3CCN(C(=O)c4ccccc4Cl)CC3)cc21,active: 20.6 µM,
CC(=O)NCCC(=O)Nc1cc(S(=O)(=O)Nc2ccc(Cl)cc2)ccc1N1CCCC1,"inconclusive [inhibitor, single point]",
CCOC(=O)N1CCN(C(=O)CSCc2ccc(Cl)cc2)CC1,"inconclusive [inhibitor, single point]",
CCOC(=O)c1cnc(SSc2ncc(C(=O)OCC)c(N)n2)nc1N,active: 23.1 µM,
CCOc1ccc(N(CC(=O)NCCSCc2ccccc2)S(C)(=O)=O)cc1,active: 1.84 µM,
Cc1cccc(-c2c3c(=O)n(C)c(=O)n(C)c3c3nnc4ccccc4n23)c1,"inconclusive [inhibitor, partial curve]",
COc1ccc(NC(=O)c2cc3ccccc3o2)cc1S(=O)(=O)N1CCCCC1,"inconclusive [inhibitor, full curve, poor fit]",
Cc1cccc(CNC(=O)C2CCC(=O)N(CCCc3ccccc3)C2)c1 (stereo not given),"inconclusive [inhibitor, partial curve]",
Cc1cccc(-n2ncc3c2CCCC3NC(=O)Cn2cccn2)c1C (stereo not given),"inconclusive [inhibitor, partial curve, poor fit]",
COc1ccc(N(CC(=O)N2CCCC2)S(=O)(=O)c2ccc(NC(C)=O)cc2)cc1,,inactive: -0.534%

# — PubChem BioAssay AID686979 (National Center for Advancing Translational Sciences (NCATS), 2013)
